PubChem BioAssay AID588453 (National Center for Advancing Translational Sciences (NCATS), 2011)
In all, about 390,000 compounds went through this assay and about 4,000 (1%) were called active. Inconclusive results, whose numbers are uncertain, are shown with a selection of clear calls. Calls come from the whole dose curve; as a rule, active = well fitted inhibition curve with a large enough effect; inconclusive = small, poorly fitted or top-dose-only effect; inactive = no such curve, though single readings can be large or run the other way. A potency beside an inconclusive call is a rough fit, not a confirmed value.

What follows are compounds tested against Thioredoxin reductase 1, cytoplasmic (Rattus norvegicus) (UniProt O89049) (assay: qHTS Assay for Inhibitors of Mammalian Selenoprotein Thioredoxin Reductase 1 (TrxR1): qHTS). Settings: recombinant rTrxR1, NADPH fluorescence consumption, selenite substrate; series mostly up to 114 µM; activity change, negative = inhibition: at the top concentration.
UniProt O89049, sequence (O89049 whole entry, looked up): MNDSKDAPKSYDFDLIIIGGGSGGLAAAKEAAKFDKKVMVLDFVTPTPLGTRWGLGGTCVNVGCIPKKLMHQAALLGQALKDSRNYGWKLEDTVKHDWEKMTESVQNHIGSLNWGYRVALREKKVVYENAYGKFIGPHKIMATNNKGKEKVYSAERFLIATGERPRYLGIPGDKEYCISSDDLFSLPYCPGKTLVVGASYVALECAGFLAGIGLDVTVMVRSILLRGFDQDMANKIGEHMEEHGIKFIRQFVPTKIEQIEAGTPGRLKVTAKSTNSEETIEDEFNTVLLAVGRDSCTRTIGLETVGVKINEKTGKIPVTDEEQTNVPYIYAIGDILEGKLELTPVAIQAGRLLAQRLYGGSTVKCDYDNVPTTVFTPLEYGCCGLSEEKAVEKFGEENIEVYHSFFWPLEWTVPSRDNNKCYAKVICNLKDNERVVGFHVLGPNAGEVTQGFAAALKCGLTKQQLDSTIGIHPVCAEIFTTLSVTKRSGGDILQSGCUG
Procedure, shortened: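 Rat TrxR1 (90 nM in the dispensed reagent) was pre-reduced with 400 uM NADPH for 5 min at room temperature, then incubated with compound for 15 min. After 400 uM selenite was added, NADPH fluorescence (Ex 340/Em 450 nm) was followed for 8 min.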
% is set by controls: 0 for no effect and ±100 for the full control effect; potency is the fitted concentration of half-maximal effect; tags give direction and shape of the fitted curve.
Note: nearly all actives have a fitted effect of over 65% in size.

Compound | activity change, negative = inhibition | Potency
O=C(Nc1ccc(-c2nc3ccccc3o2)cc1)c1cc(-n2cnnc2)ccc1Cl | inactive: -9.82% | –
CCN(CC)C(=O)CC(c1ccccc1)c1ccco1 (stereo unspecified) | – | inconclusive: 11.2 µM [inhibitor, full curve]
COc1ccc(Cl)cc1NC(=O)CCn1c(=O)c2cccn2c2ccccc21 | inactive: 13.6% | –
CCCS(=O)(=O)c1c(S(=O)(=O)CCC)c2cc(CC)ccn2c1C(=O)OC | inactive: -11.3% | –
Cc1c(N=C2C=CC(=O)c3ccccc32)c(=O)n(-c2ccccc2)n1C | – | inconclusive: 22.4 µM [inhibitor, partial curve]
O=C(NC(=S)NCc1ccccc1)c1ccccc1 | – | inconclusive: 79.4 µM [inhibitor, single point]
O=C(c1nc2ccc(Cl)cn2c1CN1CCC[C@H]1CO)N1CCCCCCC1 | – | inconclusive: 50.1 µM [inhibitor, partial curve]
O=C1NC(=S)S/C1=C\c1ccc(SCc2ccco2)o1 | – | active: 8.91 µM
CCc1c(O)c(/C(C)=N\O)c(=O)n(-c2ccccc2)c1-c1ccccc1 | – | inconclusive: 79.4 µM [inhibitor, partial curve, poor fit]
COc1cc(OC)cc(C(=O)NC(=S)Nc2nnn(C)n2)c1 | – | inconclusive: 39.8 µM [inhibitor, single point]
O=C(CC1OC(=O)c2ccccc21)Nc1ccccc1N1CCOCC1 (stereo unspecified) | inactive: 9.98% [at 57.1 µM] | –
N#Cc1c(N2CCOCC2)nc(-c2ccco2)c2c1CCCC2 | – | inconclusive: 10 µM [inhibitor, partial curve, poor fit]
Cc1ccc(NC(=S)C2=C(O)c3sccc3N(C)S2(=O)=O)cc1 | – | inconclusive: 15.8 µM [inhibitor, full curve, poor fit]
COc1ccccc1-n1cnnc1SCc1csc(-c2ccccc2)n1 | – | inconclusive: 79.4 µM [inhibitor, single point]
FC(F)(F)c1cccc(NC(=S)Nc2cccc(Cl)c2)c1 | – | inconclusive: 20 µM [inhibitor, full curve]
Cc1cc(C(=O)CCl)c(C)n1-c1ccon1 | – | inconclusive: 79.4 µM [inhibitor, single point]
Cc1ccccc1OCC(=O)Nc1ccc(C(=O)OCc2cc(=O)n3ccsc3n2)cc1 | inactive: 0.633% [at 57.1 µM] | –
S=c1[nH]nc(-c2cccc(Cl)c2)n1CCN1CCCCC1 | – | inconclusive: 50.1 µM [inhibitor, partial curve]
COc1ccc(C(C)=O)cc1CSc1nnc(C)s1 | – | inconclusive: 70.8 µM [inhibitor, single point]
O=[N+]([O-])c1ccc(Cl)c(-c2ccc(/C=N/n3cnnc3)o2)c1 | – | inconclusive: 31.6 µM [inhibitor, single point]
COc1ccccc1/C=C/C=C1N=C(/C=C/c2ccc(Cl)cc2)OC/1=O | – | inconclusive: 79.4 µM [inhibitor, single point]
COC(=O)c1ccc(CS(=O)(=O)c2ccc(C)cc2)o1 | – | inconclusive: 56.2 µM [inhibitor, partial curve, poor fit]

Compound | activity change, negative = inhibition | Potency
CC(C)C[C@H](N)c1nnc(S(=O)(=O)Cc2ccc(F)cc2)o1 | – | inconclusive: 56.2 µM [inhibitor, partial curve, poor fit]
N#Cc1c(-c2ccco2)cc(-c2ccc(F)cc2)nc1N | – | inconclusive: 20 µM [inhibitor, single point]
COc1ccc2cc(C(=O)C3CCCN(C(=O)c4snnc4C)C3)ccc2c1 (stereo unspecified) | – | inconclusive: 44.7 µM [inhibitor, partial curve, poor fit]
O=C(NCc1ccccc1)c1nc(-c2ccc(Cl)cc2)n2c1CCCCC2 | inactive: 18.7% | –
Cc1cn2c(-c3ccncc3)nnc2s1 | – | inconclusive: 28.2 µM [inhibitor, single point]
C/C=C/C=C/C(=O)Nc1nccs1 | – | inconclusive: 50.1 µM [inhibitor, partial curve]
COc1ccccc1COn1c(=O)c(-c2ccco2)[n+]([O-])c2ccccc21 | – | inconclusive: 56.2 µM [inhibitor, partial curve, poor fit]
Cc1cc(C)nc(NC(=O)/C=C/c2ccc(Cl)cc2Cl)c1 | – | inconclusive: 89.1 µM [inhibitor, single point]
Cc1nc2cc(-c3cccc(F)c3)nn2c(N2CCN(C(=O)c3ccco3)CC2)c1C | inactive: -0.857% | –
Cc1nc2ccccn2c1C(=O)N/N=C/c1cc(C)n(-c2ccc(Cl)cc2)c1C | inactive: -4.3% | –
Nc1c(C(=O)O)sc2nc(-c3ccccc3)cc(-c3ccccc3)c12 | – | inconclusive: 44.7 µM [inhibitor, partial curve, poor fit]
O=S(=O)(c1ccc(NC(=S)NC2CC2)cc1)N1CCOCC1 | – | inconclusive: 28.2 µM [inhibitor, partial curve, poor fit]
CNc1nc(-c2ccc3c(c2)CCN3C(=O)c2ccccc2C)cs1 | inactive: -5.9% | –
COc1ccc(S(=O)(=O)N2CCN(CC(=O)Nc3cc(OC)cc(OC)c3)CC2)cc1 | – | inconclusive: 89.1 µM [inhibitor, single point]
O=C(/C=C/c1ccco1)NC(=S)Nc1ccc(Cl)cn1 | – | inconclusive: 70.8 µM [inhibitor, partial curve]
O=[N+]([O-])c1ccc(-[n+]2ccc3ccccc3c2)c([N+](=O)[O-])c1 | – | active: 0.891 µM
CCCC(=O)N1CCc2[nH]c3ccccc3c2C1 | – | inconclusive: 70.8 µM [inhibitor, partial curve]
Cc1ccccc1Cn1c(C)c(CNCCCc2ccccc2)c(C(=O)O)c1C | inactive: 5.64% | –
O=C(COC(=O)c1cc(S(=O)(=O)N2CCc3ccccc3C2)ccc1Cl)NCc1ccco1 | – | inconclusive: 15.8 µM [inhibitor, partial curve, poor fit]
Cc1c(C(=O)O)cccc1-c1ccc(/C=N/Nc2ccc(Br)cc2)o1 | – | inconclusive: 89.1 µM [inhibitor, single point]
CCn1cc2nc(SCC(=O)Nc3ccc(OC)cc3OC)n(Cc3ccc(Cl)cc3)c(=O)c2n1 | – | inconclusive: 89.1 µM [inhibitor, single point]
CCCN1CCC(=NNc2ccc(S(=O)(=O)N3CCOCC3)cc2[N+](=O)[O-])CC1 | – | inconclusive: 70.8 µM [inhibitor, partial curve]

Compound | activity change, negative = inhibition | Potency
COc1cc2c(cc1OC)C(c1cc(Br)ccc1F)N(C(=O)CCl)CC2 (stereo unspecified) | – | inconclusive: 5.01 µM [inhibitor, full curve, poor fit]
CN(C)c1ccc(CNC(=O)c2ccc(CNc3c(N4CCCCC4)c(=O)c3=O)cc2)cc1 | – | inconclusive: 89.1 µM [inhibitor, single point]
O=C(Nc1ccc(C(=O)O)cc1)/C(=C\C=C\c1ccccc1)NC(=O)c1ccccc1Br | – | inconclusive: 79.4 µM [inhibitor, partial curve, poor fit]
CCOC(=O)c1cc2c(=O)n3ccccc3nc2n(Cc2ccco2)c1=NC(=O)c1cccc(Br)c1 | – | active: 3.98 µM
Oc1ccc(-c2cn3c(n2)SCC3)cc1O | – | inconclusive: 25.1 µM [inhibitor, full curve, poor fit]
CCc1ccccc1NC(=O)CN(C)Cc1c(O)ccc2ccccc12 | – | active: 39.8 µM
O=C(O)C1CCN(S(=O)(=O)c2cccc3cccnc23)CC1 | – | inconclusive: 8.91 µM [inhibitor, partial curve, poor fit]
CCCCC(=O)NC(Nc1sc2c(c1C(N)=O)CCCC2)(C(=O)OCC)C(F)(F)F (stereo unspecified) | – | inconclusive: 79.4 µM [inhibitor, single point]
Fc1cccc(C[n+]2csc3ccccc32)c1 | – | inconclusive: 25.1 µM [inhibitor, single point]
CC(=O)c1c(C)[nH]c(C2=NNC(=NCc3ccccc3)SC2)c1C | – | inconclusive: 50.1 µM [inhibitor, partial curve, poor fit]
C=CS(=O)(=O)c1c2cc(OC)ccc2nc2ccc(OC)cc12 | – | active: 1.26 µM
COc1ccc(NS(=O)(=O)c2ccc3c(c2)[C@H]2C=CC[C@H]2[C@@H](c2ccc(C(=O)O)cc2)N3)cc1 | – | inconclusive: 56.2 µM [inhibitor, single point]
Cc1ccccc1Nc1nc(CSc2nnc(-c3ccoc3C)n2C)cs1 | – | active: 50.1 µM
O=C1C=C(NCc2ccccc2)c2ccccc2C1=O | – | inconclusive: 70.8 µM [inhibitor, single point]
CCOc1ccc(NC(=O)[C@@H](c2ccccc2)N2Cc3ccccc3C2=O)cc1 | inactive: 13.7% | –
COc1ccc2oc(=O)c(/C(C)=N/Nc3ccccc3)cc2c1 | – | inconclusive: 44.7 µM [inhibitor, partial curve]
O=C(c1ccco1)N1CCN(C(=O)c2cccn3c(=O)c4c5c(sc4nc23)CCCC5)CC1 | – | inconclusive: 56.2 µM [inhibitor, partial curve, poor fit]
CC(C)N1CC2=C(OC(N)=C(C#N)C2c2cccnc2)/C(=C/c2cccnc2)C1 (stereo unspecified) | – | inconclusive: 15.8 µM [inhibitor, partial curve, poor fit]
COc1cccc(-n2c(SCC(N)=O)nc3c(oc4ccccc43)c2=O)c1 | inactive: 14.3% | –
O=C(c1ccc2c(=O)n(CC3CCCO3)c(=S)[nH]c2c1)N1CCN(C(=O)c2ccco2)CC1 (stereo unspecified) | – | inconclusive: 39.8 µM [inhibitor, partial curve]
COc1cccc(NC(=S)Nc2cccnc2)c1 | – | inconclusive: 39.8 µM [inhibitor, partial curve]
O=C1CC(Nc2ccc(N3CCOCC3)cc2)C(=O)N1c1cccc(C(F)(F)F)c1 (stereo unspecified) | – | inconclusive: 44.7 µM [inhibitor, partial curve]
